Experimental data published in patent US20240279296A1 (YUHAN, published 2024).

Target: T1, human β-klotho (human, UniProt Q86Z14 1-1044)
T1 sequence (looked up): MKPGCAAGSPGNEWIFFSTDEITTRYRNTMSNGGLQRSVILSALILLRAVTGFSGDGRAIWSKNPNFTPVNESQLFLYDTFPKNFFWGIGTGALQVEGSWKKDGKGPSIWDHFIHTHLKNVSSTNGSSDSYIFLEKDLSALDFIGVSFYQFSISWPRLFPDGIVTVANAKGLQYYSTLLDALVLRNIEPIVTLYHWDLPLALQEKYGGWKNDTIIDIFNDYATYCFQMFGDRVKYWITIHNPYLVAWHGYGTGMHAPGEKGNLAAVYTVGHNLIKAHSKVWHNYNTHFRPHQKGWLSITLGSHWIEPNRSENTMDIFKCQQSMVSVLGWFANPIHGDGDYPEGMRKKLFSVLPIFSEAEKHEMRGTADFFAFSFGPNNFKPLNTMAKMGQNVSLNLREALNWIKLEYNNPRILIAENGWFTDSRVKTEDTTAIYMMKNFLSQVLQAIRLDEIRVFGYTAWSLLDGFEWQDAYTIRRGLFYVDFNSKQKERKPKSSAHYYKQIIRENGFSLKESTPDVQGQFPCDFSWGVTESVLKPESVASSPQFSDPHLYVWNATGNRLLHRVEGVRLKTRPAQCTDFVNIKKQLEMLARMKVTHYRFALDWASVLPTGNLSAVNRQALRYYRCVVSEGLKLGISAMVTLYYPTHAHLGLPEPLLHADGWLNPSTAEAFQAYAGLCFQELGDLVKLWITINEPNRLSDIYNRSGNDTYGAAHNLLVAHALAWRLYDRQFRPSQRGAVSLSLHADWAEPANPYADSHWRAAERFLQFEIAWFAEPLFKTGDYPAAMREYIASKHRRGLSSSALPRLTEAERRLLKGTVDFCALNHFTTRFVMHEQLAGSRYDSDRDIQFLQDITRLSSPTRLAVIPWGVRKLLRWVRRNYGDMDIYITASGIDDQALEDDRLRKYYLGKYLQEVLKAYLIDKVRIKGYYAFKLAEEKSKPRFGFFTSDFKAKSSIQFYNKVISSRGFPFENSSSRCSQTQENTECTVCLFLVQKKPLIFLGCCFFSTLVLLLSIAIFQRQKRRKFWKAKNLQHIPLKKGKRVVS
Experiment: cell-based or functional assay

B1: Fc-FGF21 (Lilly) (Fc fusion)
chain: [gap - human IgG4 Fc with S228P F234A L235A (EU numbers)]GGGGSGGGGSGGGGSAHPIPDSSPLLQFGGQVRQRYLYTDDAQQTECHLEIREDGTVGCAADQSPESLLQLKALKPGVIQILGVKTSRFLCQRPDGALYGSLHFDPEACSFREDLKEDGYNVYQSEAHGLPLHLPGDKSPHRKPAPRGPARFLPLPGLPPALPEPPGILAPQPPDVGSSDPLRLVEPSQLRSPSFE
  in vitro activity (ERK phosphorylation in HEK293 cells overexpressing human β-klotho), relative to DFD1 and RGE (Amgen): 2 times
